# Measurements reported in the antibiotic and cytotoxicity screens of Wong et al. (2023).
# The other results are listed elsewhere or left out.
# Legend:
# HSkMC = human skeletal muscle cells; assay: cytotoxicity call (relative viability < 0.9); details: 10 µM
# HepG2 = assay: cytotoxicity call (relative viability < 0.9); details: 10 µM
# S. aureus RN4220 = assay: growth inhibition call (relative growth <= 0.2); details: 50 µM
SMILES,cytotoxicity call (HSkMC),cytotoxicity call (HepG2),growth inhibition call (S. aureus RN4220)
COc1cccc(-c2ccc3c(c2)O[C@H](CN(C)C(=O)C2CC2)[C@H](C)CN([C@H](C)CO)S3(=O)=O)c1,inactive,inactive,inactive
C[C@@H]1CN([C@H](C)CO)C(=O)c2cccc(NC(=O)Nc3ccc(C(F)(F)F)cc3)c2O[C@@H]1CN(C)Cc1ccc2c(c1)OCO2,inactive,inactive,inactive
Cc1noc(C)c1NC(=O)Nc1ccc2c(c1)CC(=O)N([C@H](C)CO)C[C@H](C)[C@@H](CN(C)S(=O)(=O)c1cn(C)cn1)O2,inactive,inactive,inactive
Cc1ccc(S(=O)(=O)N[C@H]2CC[C@@H](CCNC(=O)CN3CCOCC3)O[C@H]2CO)cc1,inactive,inactive,inactive
CN(C)CC#Cc1ccc([C@@H]2[C@@H](CO)N3C(=O)CN(C(=O)c4cccnc4)C[C@H]23)cc1,inactive,inactive,inactive
C[C@@H]1CN([C@H](C)CO)C(=O)c2cc(NC(=O)Nc3ccc(C(F)(F)F)cc3)ccc2O[C@@H](C)CCCCO[C@H]1CN(C)C(=O)Nc1ccc(F)cc1,inactive,active,inactive
C[C@@H]1CN([C@@H](C)CO)C(=O)c2cccc(NC(=O)Nc3ccc(C(F)(F)F)cc3)c2O[C@@H]1CN(C)Cc1ccc(Oc2ccccc2)cc1,active,active,inactive
C[C@@H]1CCCCO[C@@H](CN(C)S(=O)(=O)c2cn(C)cn2)[C@@H](C)CN([C@@H](C)CO)C(=O)c2cc(N(C)C)ccc2O1,inactive,inactive,inactive
C[C@@H]1CN([C@@H](C)CO)S(=O)(=O)c2ccc(C#C[C@@H](C)O)cc2O[C@@H]1CN(C)C(=O)C1CCCCC1,inactive,inactive,inactive
COc1ccc(cc1)CN1C[C@]2(CCN(CC2)C(=O)Nc2cccc(c2)F)c2c([nH]c3cc(ccc23)OC)[C@H]1CO,inactive,inactive,inactive
C[C@@H]1CN([C@H](C)CO)C(=O)c2cc(NC(=O)c3ccncc3)ccc2O[C@@H](C)CCCCO[C@H]1CN(C)C(=O)Nc1ccc2c(c1)OCO2,inactive,inactive,inactive
CC(=O)OC1C(=O)C2(C)C(O)CC3OCC3(OC(C)=O)C2C(OC(=O)c2ccccc2)C2(O)CC(OC(=O)C(O)C(NC(=O)c3ccccc3)c3ccccc3)C(C)=C1C2(C)C (centres undefined),inactive,active,inactive
COc1ccc(S(=O)(=O)N(C)C[C@H]2Oc3c(NC(=O)C4CC4)cccc3C(=O)N([C@@H](C)CO)C[C@@H]2C)cc1,inactive,inactive,inactive
C[C@@H]1CN([C@@H](C)CO)C(=O)c2cc(NC(=O)CCCN(C)C)ccc2O[C@@H](C)CCCCO[C@@H]1CN(C)CC1CCCCC1,inactive,inactive,inactive
N#C[C@@H]1N[C@H](CO)[C@H]1c1ccccc1,inactive,inactive,inactive
O=C(O)CNC(=O)[C@H]1COc2ccccc2O1,inactive,inactive,inactive
Cc1cc(C(=O)Nc2cccc3c2O[C@@H](CN(C)S(=O)(=O)c2ccc(Cl)cc2)[C@@H](C)CN([C@H](C)CO)C3=O)n(C)n1,inactive,inactive,inactive
C[C@@H]1CN([C@@H](C)CO)C(=O)c2c(c3ccccc3n2C)-c2ccccc2CO[C@@H]1CN(C)C(=O)Nc1cccc(C(F)(F)F)c1,inactive,inactive,inactive
C[C@@H]1CCCCO[C@@H](CN(C)C(=O)Nc2cccc3ccccc23)[C@@H](C)CN([C@H](C)CO)C(=O)c2cc(NC(=O)Nc3ccc(F)cc3)ccc2O1,inactive,inactive,inactive
O=C(Nc1ccc(C(=O)O)c(O)c1)c1ccccc1,inactive,inactive,inactive
Clc1ccc(-c2csc(-c3ccc4c(c3)CCO4)n2)s1,inactive,inactive,inactive
C[C@H]1CN([C@@H](C)CO)C(=O)c2cc(NC(=O)Cn3cnnn3)ccc2O[C@H]1CN(C)C(=O)Nc1ccc2c(c1)OCO2,inactive,inactive,inactive
C=CCOC(=O)N(C)C[C@@H]1Oc2ccc(NC(=O)NC(C)C)cc2C(=O)N([C@H](C)CO[Si](C)(C)C(C)(C)C)C[C@H]1C,inactive,inactive,inactive
Cc1noc(C)c1NC(=O)Nc1ccc2c(c1)C(=O)N([C@@H](C)CO)C[C@H](C)[C@@H](CN(C)C(=O)NC1CCCCC1)OCCCC[C@H](C)O2,inactive,inactive,inactive
COc1cccc(NC(=O)N(C)C[C@H]2Oc3ncc(C#Cc4ccncc4)cc3C(=O)N([C@H](C)CO)C[C@@H]2C)c1,inactive,inactive,inactive
C[C@@H]1CN([C@H](C)CO)C(=O)c2cc(NS(C)(=O)=O)ccc2O[C@@H]1CN(C)Cc1ccc(C(=O)Nc2ccccc2N)cc1,inactive,inactive,inactive
C[C@H](CO)N1C[C@H](C)[C@H](CN(C)Cc2ccc(C(=O)O)cc2)Oc2ccc(NC(=O)Cn3cnnn3)cc2C1=O,inactive,inactive,inactive

SMILES,cytotoxicity call (HSkMC),cytotoxicity call (HepG2),growth inhibition call (S. aureus RN4220)
CCC(=O)OC1(C(=O)SCF)C(C)CC2C3CC(F)C4=CC(=O)C=CC4(C)C3(F)C(O)CC21C (centres undefined),inactive,inactive,inactive
C[C@H]1CCCCO[C@@H](CN(C)Cc2ccc(C(=O)Nc3ccccc3N)cc2)[C@@H](C)CN([C@@H](C)CO)C(=O)c2cc(N(C)C)ccc2O1,inactive,inactive,inactive
CN(C)CC(=O)N1[C@@H](CO)[C@H](c2ccc(C3=CCCC3)cc2)C12CN(S(=O)(=O)Cc1ccccc1)C2,inactive,inactive,inactive
C[C@@H]1CN([C@@H](C)CO)C(=O)c2cccc(NC(=O)c3ccc(-c4nccs4)cc3)c2O[C@H]1CN(C)Cc1ccc(Cl)c(Cl)c1,inactive,inactive,inactive
C[C@@H]1CCCCO[C@H](CN(C)C(=O)Nc2ccc(C(F)(F)F)cc2)[C@H](C)CN([C@@H](C)CO)C(=O)c2cc(NC(=O)c3ccncc3)ccc2O1,inactive,inactive,inactive
C[C@H](CO)N1C[C@H](C)[C@H](CN(C)Cc2ccc3c(c2)OCO3)Oc2c(NC(=O)Nc3ccc(C(F)(F)F)cc3)cccc2C1=O,inactive,inactive,inactive
COCCOC(=O)N1C(=O)[C@@]2(c3cc(C#Cc4ccc(OC)cc4)ccc31)[C@H](C(=O)NC[C@H](O)c1ccccc1)[C@H]1C(=O)O[C@H](c3ccccc3)[C@H](c3ccccc3)N1[C@@H]2c1ccc(OCCO)cc1,inactive,inactive,inactive
COC(CNC1=Nc2ncccc2OC1)OC,inactive,inactive,inactive
Cc1ccc(S(=O)(=O)Nc2ccc3c(c2)C(=O)N([C@@H](C)CO)C[C@H](C)[C@H](CN(C)S(C)(=O)=O)OCCCC[C@@H](C)O3)cc1,inactive,inactive,inactive
C[C@@H]1CN([C@H](C)CO)C(=O)c2cccc(NC(=O)Nc3ccc4c(c3)OCO4)c2O[C@@H]1CN(C)C(=O)Nc1cccc2ccccc12,inactive,inactive,inactive
Cc1noc(C)c1NC(=O)N(C)C[C@@H]1Oc2ccc(NS(C)(=O)=O)cc2C(=O)N([C@@H](C)CO)C[C@@H]1C,inactive,inactive,inactive
Cc1ccc(S(=O)(=O)Nc2ccc3c(c2)C(=O)N([C@H](C)CO)C[C@H](C)[C@H](CN(C)C(=O)Nc2cccc4ccccc24)OCCCC[C@@H](C)O3)cc1,inactive,inactive,inactive
CO[C@@H](CN(C)S(=O)(=O)c1ccc(Cl)cc1)[C@H](C)CN([C@H](C)CO)S(=O)(=O)c1cccc(Cl)c1,inactive,inactive,inactive
C=CC(C)(C)c1[nH]c2ccccc2c1C1=C(O)C(=O)C(c2c[nH]c3c(CC=C(C)C)cccc23)=C(O)C1=O,active,inactive,inactive
Cc1noc(C)c1NC(=O)Nc1ccc2c(c1)CC(=O)N([C@@H](C)CO)C[C@@H](C)[C@@H](CN(C)S(C)(=O)=O)O2,inactive,inactive,inactive
COc1ccc(NC(=O)Nc2ccc3c(c2)C(=O)N([C@H](C)CO)C[C@H](C)[C@@H](CN(C)S(=O)(=O)c2ccc(C)cc2)OCCCC[C@@H](C)O3)cc1,inactive,inactive,inactive
C[C@H]1CN([C@@H](C)CO)S(=O)(=O)c2ccc(C#Cc3ccccc3F)cc2O[C@@H]1CN(C)CC1CCOCC1,inactive,inactive,inactive
COc1ccc(S(=O)(=O)Nc2ccc3c(c2)C(=O)N([C@@H](C)CO)C[C@H](C)[C@H](CN(C)Cc2ccc(Cl)c(Cl)c2)O3)cc1,inactive,inactive,inactive
Cc1noc(C)c1NC(=O)N(C)C[C@H]1OCCCC[C@@H](C)Oc2ccc(NC(=O)Nc3cccc4ccccc34)cc2C(=O)N([C@H](C)CO)C[C@@H]1C,inactive,inactive,inactive
CNC(=O)[C@H]1C[C@@H]2CN(c3ncc(F)cn3)C[C@H]1O2,inactive,inactive,inactive
COc1ccccc1Nc1nc(-c2ccc(Cl)cc2)cs1,inactive,inactive,inactive
COC(=O)Cc1c(C)[nH]c(=S)[nH]c1=O,inactive,inactive,inactive
COc1ccc(S(=O)(=O)N(C)C[C@@H]2Oc3c(NC(=O)NC(C)C)cccc3C(=O)N([C@H](C)CO)C[C@@H]2C)cc1,inactive,inactive,inactive
CCOC(=O)N(C)C[C@H]1OCc2cnnn2CCCC(=O)N([C@H](C)CO)C[C@@H]1C,inactive,inactive,inactive
C[C@@H]1CN([C@@H](C)CO)C(=O)c2cccc(NC(=O)c3ccncc3)c2O[C@H]1CN(C)C(=O)Nc1ccc2c(c1)OCO2,inactive,inactive,inactive
C[C@@H]1CN([C@@H](C)CO)C(=O)c2cc(NC(=O)CCCN(C)C)ccc2O[C@@H](C)CCCCO[C@H]1CN(C)C(=O)Nc1cccc2ccccc12,inactive,inactive,inactive
